Data set [1] deals with diet-induced obesity-induced mouse model. Put plainly: Diet-induced obesity-induced model study III. The data set is classed as in vivo, C57BL/6N mice. The note with it: 5 mg/kg subcutaneous 6 times a week for 2 weeks; versus Control. The method, then: (§1) In order to confirm the efficacy of the fusion protein against diseases according to obesity and further, sarcopenic obesity, disease induction was carried out in mice through diet-induced obesity. As an animal model, C57BL/6N was used, and was used after an acclimation period by providing normal diet for 1 week, and the housing conditions were maintained at 18~24° C., and 50~60% humidity, and ad libitum feeding with free access to feed and water was carried out during both the acclimation period and experimental period. In the mice after the acclimation period for 1 week, obesity was induced by a high-fat diet (Research Diets, Inc. D12492) to induce disease.
The mice in which obesity was induced were divided into a Control and an experimental group (Control: n=8, No. 3: n=7), and PBS to the Control and the fusion protein (SEQ ID NO: 3) to the experimental group were subcutaneously injected at a dose of 5 mg/kg 6 times a week for 2 weeks, and the efficacy thereof was observed.

Data set [2] relates to Akt and S6 (phosphorylation, p-Akt/p-S6) in C2C12 mouse skeletal muscle cell line. Nature of the data set: Akt and S6 phosphorylation (western blot) in C2C12 muscle cells. In kind it is cell-based. To be noted: 2 hours; for Activity (% increase compared to control) Differentiated Akt / Activity (% increase compared to control) Differentiated S6: C2C12 differentiated into myotubes; for Activity (% increase compared to control) Differentiated Akt / Activity (% increase compared to control) Differentiated S6 / Activity of Akt and S6 compared with control and His tag-wild-type substance (SEQ ID NO: 5): 100 nM; for Activity (% increase compared to control) Differentiated Akt / Activity (% increase compared to control) Differentiated S6 / Activity (% increase compared to control) Undifferentiated Akt / Activity (% increase compared to control) Undifferentiated S6: control PBS; for Activity of Akt and S6 compared with control and His tag-wild-type substance (SEQ ID NO: 5): differentiated cell line; for Activity (% increase compared to control) Undifferentiated Akt / Activity (% increase compared to control) Undifferentiated S6: undifferentiated C2C12, 100 nM. The method, then:
In order to evaluate functions related to muscle loss diseases, each test substance was treated to the undifferentiated C2C12 mouse skeletal muscle cell line (mouse myoblast cell line) or the cell line in which differentiation into myotubes was completed. Differentiation of the cell line into myotubes was performed by conducting addition of 2% horse serum to culture medium and replacement with new medium every two days for a total of 4 days.
To the undifferentiated or differentiated cell lines, the test substances, fusion proteins (SEQ ID NOs: 1, 2, 3, 7, 14 and 15) were treated at a concentration of 100 nM (Control: PBS treated group) for 2 hours. Thereafter, the cells were immediately washed once and the cells were lysed with RIPA buffer (Radioimmunoprecipitation assay buffer). The activity of Akt and S6 (phosphorylation, p-Akt/p-S6) was observed by western blot. Akt phosphorylation is a well-known marker of activation of cell signaling pathways, and is an indicator of beneficial effects on muscle cells such as promotion of glucose metabolism and promotion of muscle biosynthesis. Similarly, S6 phosphorylation is a well-known marker of mTOR activity, and the activity of mTOR is an indicator showing muscle biosynthesis and various cell signaling pathways.

Data set [3] concerns cAMP (cyclic AMP). Nature of the data set: cAMP level (hTRF) in undifferentiated 3T3-L1 cells. The note with it: undifferentiated 3T3-L1, 100 nM with 0.5 mM IBMX, 30 minutes; compared with Control and SEQ ID NO: 5. In kind it is cell-based, mouse. The method, then:
To observe the functionality of the fusion proteins related to lipid metabolism, the 3T3-L1 mouse pre-adipocyte cell line was used as the cell line itself (undifferentiated) or by differentiating into adipocytes. Differentiation into the adipocytes was performed by inducing primary differentiation for the 3T3-L1 cells in a medium containing DMEM, 10% FBS, 10 μg/ml insulin, 0.5 mM IBMX (3-Isobutyl-1-methylxanthine), and 1 μM dexamethasone for 2 days, and inducing secondary differentiation with a medium containing DMEM, 10% FBS, and 10 μg/ml insulin for the remaining 4 days. The adipocytes in which differentiation was finally completed were treated with the test substances at a concentration of 100 nM for 30 hours (Control: PBS) and then used for each test.
Next, changes in cAMP (cyclic AMP), a signaling mediator contributing to lipolysis and energy metabolism were evaluated in the undifferentiated adipocytes. The undifferentiated cells were treated with the test substances at a concentration of 100 nM (Control: PBS) with 0.5 mM IBMX for 30 minutes. Thereafter, the level of cAMP was evaluated by the hTRF (Homogeneous Time Resolved Fluorescence) method (using CAMP Gs dynamic kit from Cisbio). As a result of the measurement, it was confirmed that the level of cAMP was higher in the groups treated with the fusion proteins (SEQ ID NOs: 1, 2, 3, 7, 13, 14, 15) and shortened sequences (sequences 9, 10, 11) compared with the Control and His tag-wild-type substance (1-81) (SEQ ID NO: 5) (FIG. 7).
(cAMP levels reflect the balance of adenylyl cyclase and phosphodiesterase activity.)

A short description of data set [4]: Half-life in mice by ELISA. The data set is classed as in vivo. The note with it: C57BL6/J mice, subcutaneous 5 mg/kg. The method, then: The half-life of the fusion protein was further measured by ELISA (Enzyme-Linked Immunosorbent Assay). Each test substance was subcutaneously injected to the C57BL6/J mice at a concentration of 5 mg/kg, and then blood was separated by time.
The separated blood was added to a 96-well plate coated with a capture antibody, and each well was washed with PBS (phosphate buffered saline) 3 times. A detection solution was added to each well and the wavelengths value thereof were read at 450 nm and analyzed.
(In an ELISA, binding on a coated surface is turned into a signal by an enzyme label.)

Data set [5] has as its system SH-SY5Y dopaminergic neuron cell line. Nature of the data set: Reactive oxygen in neuron cells under rotenone. The data set is classed as cell-based. To be noted: 1 µM rotenone + 100 nM test substance, 24 hours; compared with rotenone alone. The method, then:
(§2) The SH-SY5Y dopaminergic neuron cell line was treated with 1 µM of a toxic substance, rotenone and 100 nM of each test substance simultaneously. After 24 hours, the MTT cell viability or the effect of reducing reactive oxygen was observed.

Data set [6] has the same test system. Nature of the data set: MTT cell viability of neuron cells under rotenone. In kind it is cell-based. To be noted: 1 µM rotenone + 100 nM test substance, 24 hours; compared with rotenone alone. The method, then: as §2
Data set [7] has as its system MDA-MB-231 triple-negative breast cancer cell line. Nature of the data set: MTT cell viability in breast cancer cells. The data set is classed as cell-based. The note with it: 1 μM, 48 hours; compared with Control (PBS), SEQ ID NO: 4 and SEQ ID NO: 5. The method, then: Next, the test substances, the fusion proteins (SEQ ID NO: 1, 2, 3, 7, 14, 15) and shortened sequences (SEQ ID NOs: 9, 10, 11, 12) were treated to MDA-MB-231 triple-negative breast cancer cell line at a concentration of 1 μM (Control: PBS) for 48 hours. Thereafter, the cells were washed with PBS once, and the cells were suspended in serum-free buffer. The MTT (3-[4,5-dimethylthiazol-2-yl]-2,5-diphenyltetrazolium bromide) substance was added thereto at 0.5 mg/ml and incubated at 37° C. for 2 hours. Then, they were washed with PBS once, and the cells were lysed with DMSO for 15 minutes. The solution was transferred to a new plate and the absorbance was measured at 590 nm using a microplate reader.

The test system of data set [8] is MDA-MB-231 cell line. Nature of the data set: Reactive oxygen generation (DCF-FA) in breast cancer cells. In kind it is cell-based. The note with it: 1 μM, 24 hours; compared with Control and SEQ ID NO: 5. The method, then:
In addition, in order to examine generation of reactive oxygen that plays an important role in cancer cell death, each test substance was treated to the MDA-MB-231 cell line at a concentration of 1 μM (Control: PBS) for 24 hours. Then, the cells were stained with DCF-FA and their fluorescence values were observed and compared at 485/535 nm.

The test system of data set [9] is diet-induced obesity-induced mouse model. Put plainly: Diet-induced obesity-induced model study IV. The data set is classed as in vivo, C57BL/6N mice. To be noted: 5 mg/kg subcutaneous 6 times a week for 10 days; before versus after administration. Here is the method:
as §1
The mice in which obesity introduction was completed (No. 7: n=7) were subcutaneously injected with the fusion protein (SEQ ID NO: 7) at a dose of 5 mg/kg 6 times a week for 10 days, and the efficacy thereof was compared and observed before and after administration.

Data set [10] has the same test system. Nature of the data set: Diet-induced obesity-induced model study I. In kind it is in vivo, C57BL/6N mice. To be noted: versus Control. The method, then:
as §1
The mice in which obesity induction was completed were divided into a Control and an experimental group (Control: n=8, No. 1: n=6, No. 2: n=6), and PBS to the control group, and the fusion protein (SEQ ID NO: 1, 2) to the experimental group were subcutaneously injected at a dose 5 mg/kg 6 times a week for 10 weeks and the efficacy thereof was observed.

Where [11] appears, read: 5 mg/kg subcutaneous 6 times a week for 10 weeks.
Setting [12] is: after 3 weeks of administration.

B1: SEQ ID NO: 3: Recombinant protein: Shortened amino acid modified substance (1-60; G20S, F34M mutation introduced)-repeat-type linker-Fc fusion (mutant modified) (protein)
chain: GSDQSENVDRGAGSIREAGSAFGKREQAEEERYMRAQSREQLAALKKHHEEEIVHHKKEIGGGGSGGGGSGGGGS[human IgG1 Fc with changes omitted here]
Consider B1, for which, in data set [1], the Fat tissue ratio result is “decrease”, the Final body weight entry is “reduced at a significant level” and the Muscle tissue ratio result is “increase”. In data set [2], the “Activity (% increase compared to control) Differentiated Akt” value was determined as 463%; the “Activity (% increase compared to control) Differentiated S6” value is recorded as 587%; the “Activity of Akt and S6 compared with control and His tag-wild-type substance (SEQ ID NO: 5)” value is “significantly higher activity”; the “Activity (% increase compared to control) Undifferentiated Akt” value was 421%. Moreover, the “Activity (% increase compared to control) Undifferentiated S6” value in data set [2] was determined as 302%. Further, in [3], the “Level of cAMP” value is reported as “higher”. This molecule had a Half-life in data set [4] of 74.7 h. The “Generation of reactive oxygen” value in data set [5] is given as “significantly inhibited”. The “Cell viability (MTT)” value in data set [6] was “significantly increased”. Also, in data set [7], the “Cell viability (MTT)” value is on record as “significantly low”. For the same molecule, the Reactive oxygen generation entry in data set [8] was “generated higher”.

B2: SEQ ID NO: 7: Recombinant protein: Shortened substance (1-60)-linker-GLP1 sequence-GLP1-linker-Fc fusion (protein)
chain: GSDQSENVDRGAGSIREAGGAFGKREQAEEERYFRAQSREQLAALKKHHEEEIVHHKKEIGGGGSGGGGSGGGGSHGEGTFTSDVSSYLEEQAAKEFIAWLVKGGGGGGGSGGGGSGGGGSA[human IgG4 Fc with S228P (EU numbers) omitted here]
Take B2: in data set [2], the “Activity (% increase compared to control) Differentiated Akt” value was found to be 411%; the “Activity (% increase compared to control) Differentiated S6” value amounted to 446%; the “Activity of Akt and S6 compared with control and His tag-wild-type substance (SEQ ID NO: 5)” value was “significantly higher activity”; the “Activity (% increase compared to control) Undifferentiated Akt” value stood at 377%. Also, the “Activity (% increase compared to control) Undifferentiated S6” value in data set [2] is listed as 513%. The “Level of cAMP” value in [3] was “higher”. In addition, in data set [9], the Body weight result is “reduced at a significant level”, the Fat tissue ratio result is “decrease” and the Muscle tissue ratio result is “increase”. Also, in [5], the “Generation of reactive oxygen” value is reported as “significantly inhibited”. The “Cell viability (MTT)” value in data set [6] is reported as “significantly increased”. Further, the “Cell viability (MTT)” value in data set [7] is on record as “significantly low”. Moreover, the Reactive oxygen generation entry in [8] is given as “generated higher”.

B3: SEQ ID NO: 1: Recombinant protein: Shortened substance (1-60)-shortened linker-Fc fusion (mutant modified) (protein)
chain: GSDQSENVDRGAGSIREAGGAFGKREQAEEERYFRAQSREQLAALKKHHEEEIVHHKKEIGGGGS[human IgG1 Fc with changes omitted here]
Consider B3, for which, in data set [10] (setting [11]), the Blood sugar entry is “reduced”, the Final body weight result was “reduced at a significant level” and the “Size of lipid droplets in liver tissue” value is on record as “significantly reduced”. Moreover, in [10] (setting [12]), the “Fat tissue mass (DXA assay)” value is recorded as “significant decrease” and the “Muscle mass (DXA assay)” value was “maintained”. For the same molecule, in data set [2], the “Activity (% increase compared to control) Differentiated Akt” value was 231%; the “Activity (% increase compared to control) Differentiated S6” value is 486%; the “Activity of Akt and S6 compared with control and His tag-wild-type substance (SEQ ID NO: 5)” value is recorded as “significantly higher activity”; the “Activity (% increase compared to control) Undifferentiated Akt” value came to 314%. In addition, in data set [2], the “Activity (% increase compared to control) Undifferentiated S6” value amounted to 294%. For the same molecule, the “Level of cAMP” value in data set [3] is reported as “higher”. This molecule displayed a Half-life in data set [4] of 39.6 h. For the same molecule, the “Generation of reactive oxygen” value in data set [5] was “significantly inhibited”. For the same molecule, the “Cell viability (MTT)” value in data set [6] was “significantly increased”. For the same molecule, the “Cell viability (MTT)” value in [7] was “significantly low”. Moreover, the Reactive oxygen generation entry in data set [8] is listed as “generated higher”.

Values taken from US20260274910A1, “SINGLE FUSION PROTEIN AND PHARMACEUTICAL COMPOSITION” (MEDI&GENE INC., priority 2023, published 2026).
